Measurements: the supplement of paper PMC7125110
± gives the standard error. Variants at the background level are over-represented here.

B1: glmS ribozyme (parent)
chain: AUAAAAGCGCCAGAACUACAGAAAUGUAGUUGACGAGGAGGAGGUUUAUCGAAUUUUCGGCGGAUGCCUCCAAA

Legend:
Details in all cases: with glucosamine-6-phosphate
glucosamine-6-phosphate [1] = variants of: B1; experiment: self-cleavage kobs at 640 uM GlcN6P; higher = faster cleavage; RNA array
Summary of the method: (§1)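 On sequenced MiSeq chips, barcoded ribozyme variants were made in situ by E. coli RNA polymerase and followed at 37 °C through a hybridised Cy3 probe. Glucosamine-6-phosphate was flowed in at 40 μM to 10 mM in HEPES/KCl/Mg(OAc)2 buffer. Exponential fits to normalised per-tile medians gave kobs, and weighted Michaelis–Menten fits gave kcat and KM.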

glucosamine-6-phosphate [2] = variants of: B1; experiment: self-cleavage kobs at 160 uM GlcN6P; higher = faster cleavage; RNA array
Summary of the method: as §1

glucosamine-6-phosphate [3] = variants of: B1; experiment: self-cleavage kobs at 2500 uM GlcN6P; higher = faster cleavage; RNA array
Summary of the method: as §1

glucosamine-6-phosphate [4] = variants of: B1; experiment: self-cleavage kobs at 10000 uM GlcN6P; higher = faster cleavage; RNA array
Summary of the method: as §1

Row | Variant | self-cleavage kobs at 640 uM GlcN6P (glucosamine-6-phosphate [1]) | self-cleavage kobs at 160 uM GlcN6P (glucosamine-6-phosphate [2]) | self-cleavage kobs at 2500 uM GlcN6P (glucosamine-6-phosphate [3]) | self-cleavage kobs at 10000 uM GlcN6P (glucosamine-6-phosphate [4])
1 | G43U C58A | < 1e-05 s⁻¹ | < 1e-05 s⁻¹ | < 1e-05 s⁻¹ | 
2 | G43U C70G C71A | < 1e-05 s⁻¹ |  | < 1e-05 s⁻¹ | 
3 | G43U U46C U56G | < 1e-05 s⁻¹ |  | < 1e-05 s⁻¹ | 
4 | G43U U47C G66U | < 1e-05 s⁻¹ |  |  | 
5 | G43U U49G A53U | < 1e-05 s⁻¹ |  | < 1e-05 s⁻¹ | 
6 | G43U U57G | < 1e-05 s⁻¹ | < 1e-05 s⁻¹ | < 1e-05 s⁻¹ | < 1e-05 s⁻¹
7 | G44A A52G G62U C67G | < 1e-05 s⁻¹ |  | < 1e-05 s⁻¹ | 
8 | G44A A52G U56G C70G | < 1e-05 s⁻¹ |  | < 1e-05 s⁻¹ | < 1e-05 s⁻¹
9 | G44A C58G C70U C71G | < 1e-05 s⁻¹ |  |  | 
10 | G44A U56A | 4.93e-05 ± 1.6e-05 s⁻¹ |  |  | 
11 | G44C A48G U57C | < 1e-05 s⁻¹ |  | < 1e-05 s⁻¹ | 
12 | G44C G63U | < 1e-05 s⁻¹ |  | < 1e-05 s⁻¹ | < 1e-05 s⁻¹
13 | G44C U47A C50G | < 1e-05 s⁻¹ |  | < 1e-05 s⁻¹ | 
14 | G44C U56A G62U | < 1e-05 s⁻¹ |  |  | < 1e-05 s⁻¹
15 | G44U G51A U65A | < 1e-05 s⁻¹ |  | < 1e-05 s⁻¹ | < 1e-05 s⁻¹
16 | G44U G59A G66A C70U | < 1e-05 s⁻¹ |  | < 1e-05 s⁻¹ | 
17 | G44U G59U G63C | < 1e-05 s⁻¹ |  | < 1e-05 s⁻¹ | 
18 | G44U U47C A48C U69G | < 1e-05 s⁻¹ |  | < 1e-05 s⁻¹ | 
19 | G44U U49C C70G | < 1e-05 s⁻¹ |  |  | 
20 | G44U U56C C58G | < 1e-05 s⁻¹ | < 1e-05 s⁻¹ |  | 
21 | G44U U69C | < 1e-05 s⁻¹ | < 1e-05 s⁻¹ |  | 
22 | U45A A48C | 0.000131 ± 2.3e-05 s⁻¹ |  |  | 
23 | U45A U49C | < 1e-05 s⁻¹ |  |  | < 1e-05 s⁻¹
24 | U45C G51U | < 1e-05 s⁻¹ |  | < 1e-05 s⁻¹ | 
25 | U45C G63C | < 1e-05 s⁻¹ | < 1e-05 s⁻¹ | < 1e-05 s⁻¹ | < 1e-05 s⁻¹
26 | U45C U47G G51U | < 1e-05 s⁻¹ |  |  | 
27 | U45C U49A | < 1e-05 s⁻¹ | < 1e-05 s⁻¹ | < 1e-05 s⁻¹ | < 1e-05 s⁻¹
28 | U45G C61G G63A | < 1e-05 s⁻¹ |  | < 1e-05 s⁻¹ | 

Row | Variant | self-cleavage kobs at 640 uM GlcN6P (glucosamine-6-phosphate [1]) | self-cleavage kobs at 160 uM GlcN6P (glucosamine-6-phosphate [2]) | self-cleavage kobs at 2500 uM GlcN6P (glucosamine-6-phosphate [3]) | self-cleavage kobs at 10000 uM GlcN6P (glucosamine-6-phosphate [4])
29 | U46A A52G G63U | < 1e-05 s⁻¹ |  |  | 
30 | U46A G51C A52G | < 1e-05 s⁻¹ | < 1e-05 s⁻¹ | < 1e-05 s⁻¹ | 
31 | U46A U47A A48C C67U C70G | < 1e-05 s⁻¹ | < 1e-05 s⁻¹ | < 1e-05 s⁻¹ | 
32 | U46A U47C C70A | 9.01e-05 ± 2.2e-05 s⁻¹ |  | 0.000206 ± 3.7e-05 s⁻¹ | 
33 | U46A U54G C70A | 5.86e-05 ± 2.1e-05 s⁻¹ |  | 0.000289 ± 7.5e-05 s⁻¹ | 
34 | U46C G59C | < 1e-05 s⁻¹ |  |  | 
35 | U46C U55C G63U | < 1e-05 s⁻¹ |  |  | 
36 | U46C U55C U57G A64G C68U | < 1e-05 s⁻¹ | < 1e-05 s⁻¹ | < 1e-05 s⁻¹ | 
37 | U46G A48U | 3.53e-05 ± 1.4e-05 s⁻¹ |  | 0.000128 ± 2.5e-05 s⁻¹ | 0.000117 ± 1.6e-05 s⁻¹
38 | U46G C58U C61U | < 1e-05 s⁻¹ |  | < 1e-05 s⁻¹ | 
39 | U47A C58U U65C | < 1e-05 s⁻¹ |  |  | 
40 | U47C G63A | < 1e-05 s⁻¹ |  |  | 
41 | U47C G63U | < 1e-05 s⁻¹ | < 1e-05 s⁻¹ |  | < 1e-05 s⁻¹
42 | U47G C68A | 0.000121 ± 2.4e-05 s⁻¹ | 4.97e-05 ± 2e-05 s⁻¹ | 9.07e-05 ± 1.6e-05 s⁻¹ | 3.58e-05 ± 1.2e-05 s⁻¹
43 | A48C G66U | < 1e-05 s⁻¹ |  |  | 
44 | A48G A52C U55C | < 1e-05 s⁻¹ | < 1e-05 s⁻¹ |  | 
45 | A48G A53G C67G | 6.02e-05 ± 2.2e-05 s⁻¹ |  | 6.1e-05 ± 2.3e-05 s⁻¹ | 
46 | A48G C67U C70U | < 1e-05 s⁻¹ |  |  | 
47 | A48U C61U G62A | < 1e-05 s⁻¹ |  | < 1e-05 s⁻¹ | 
48 | A48U G51U G63C C67U C70A | < 1e-05 s⁻¹ |  |  | 
49 | A48U U54G G60U | < 1e-05 s⁻¹ |  | < 1e-05 s⁻¹ | 
50 | U49C C67A | < 1e-05 s⁻¹ | < 1e-05 s⁻¹ |  | < 1e-05 s⁻¹
51 | U49C G62U | < 1e-05 s⁻¹ | < 1e-05 s⁻¹ | < 1e-05 s⁻¹ | < 1e-05 s⁻¹
52 | C50A C67U C70G | 6.04e-05 ± 2.3e-05 s⁻¹ |  |  | 
53 | C50A G66C | < 1e-05 s⁻¹ |  |  | 
54 | C50A U54C | < 1e-05 s⁻¹ | < 1e-05 s⁻¹ |  | 
55 | C50G A52U U55A G63U A64U | < 1e-05 s⁻¹ |  |  | 
